Data taken from publication PMC6919601, “Identification of Plasmodium dipeptidyl aminopeptidase allosteric inhibitors by high throughput screening” (PLoS ONE, 2019).
About 230 (0.21%) of roughly 110,000 compounds showed an effect of 50% or more. The list shows a part of the results.

target: DPAP1 (Plasmodium falciparum, UniProt Q8IIJ9); assay: primary screen, percent inhibition; read by cleavage of a fluorogenic dipeptide substrate; higher = more effect of the substance; design: species or system P. falciparum D10 trophozoite lysates; single well
Sequence (Q8IIJ9 whole entry, looked up): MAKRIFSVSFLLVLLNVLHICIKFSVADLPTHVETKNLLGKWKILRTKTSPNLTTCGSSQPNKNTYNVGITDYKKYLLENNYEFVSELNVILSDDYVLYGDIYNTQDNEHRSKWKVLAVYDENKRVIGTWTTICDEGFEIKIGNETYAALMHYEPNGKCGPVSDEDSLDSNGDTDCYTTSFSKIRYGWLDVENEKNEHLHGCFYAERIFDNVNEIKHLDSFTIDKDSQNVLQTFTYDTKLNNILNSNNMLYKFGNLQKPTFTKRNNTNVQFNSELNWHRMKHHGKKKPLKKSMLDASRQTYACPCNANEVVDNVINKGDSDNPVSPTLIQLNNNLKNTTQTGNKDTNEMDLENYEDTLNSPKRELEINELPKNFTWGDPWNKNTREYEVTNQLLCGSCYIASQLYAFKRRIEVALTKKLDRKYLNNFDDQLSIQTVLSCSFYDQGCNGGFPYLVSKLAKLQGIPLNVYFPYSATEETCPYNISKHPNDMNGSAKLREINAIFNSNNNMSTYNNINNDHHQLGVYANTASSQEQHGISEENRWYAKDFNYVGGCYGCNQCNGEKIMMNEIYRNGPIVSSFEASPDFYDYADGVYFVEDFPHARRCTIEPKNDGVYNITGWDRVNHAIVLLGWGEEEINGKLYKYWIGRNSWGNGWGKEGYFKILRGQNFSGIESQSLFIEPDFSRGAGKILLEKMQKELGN
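Note: 30 min substrate incubation versus DMSO and 10 µM JCP410 controls.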

Row | SMILES | % Inhibition @ 10 uM
1 | Cc1ccc(-c2noc(CN(C(=O)C(C)(C)C)C(C)C)n2)cc1 | -4.31%
2 | Cc1cc(=O)oc2c(CN(CCO)CCO)c(O)c(O)cc12 | -2.77%
3 | CN1C(=O)/C(=C2/C(=O)Nc3ccc(Br)cc32)S/C1=N/c1ccc(Cl)cc1 | -3.87%
4 | CCOC(=O)N1CCN(C(=O)C2CCCN(S(C)(=O)=O)C2)CC1 (stereo not shown) | -2.99%
5 | COc1ccc(/N=C/c2c(N)nn(-c3ccccc3)c2O)cc1 | -2.8%
6 | CC(=O)N(c1ccc2oc3c(c2c1)CCCC3)S(=O)(=O)c1ccc(F)cc1 | 6.68%
7 | Clc1ccc(Cl)c(OCCCCN2CCCCC2)c1 | -2.48%
8 | Cc1cccc(OCC(=O)Nc2ccc(CC#N)cc2)c1 | 0.231%
9 | O=[N+]([O-])c1cc(CN2CCN(c3cccc(C(F)(F)F)c3)CC2)ccc1Cl | 4.66%
10 | Cc1nc(SCC(C)C)c(C#N)c(C)c1C | -0.99%
11 | N#CC1=C(N)Oc2[nH]nc(-c3cccs3)c2C1c1ccc(Br)s1 (stereo not shown) | 3.92%
12 | Cc1nc2nc(N)nn2c(O)c1C | 1%
13 | CC1CCC(NC(=O)CCc2nnc3n(CCc4ccccc4)c(=O)c4ccccc4n23)CC1 (stereo not shown) | 2.6%
14 | COCc1cc(C)nc(Nc2ccccc2C)c1C#N | 4.68%
15 | COc1ccc(-c2noc(CSCC(=O)NCCCN(C)Cc3ccccc3)n2)cc1OC | -6.37%
16 | Cc1cccn2c(=O)c(/C=C(\C#N)C(=O)NC3CCCCC3)c(Oc3ccccc3)nc12 | -3.23%
17 | O=C(NCCc1ccc(Cl)cc1)C1CCN(c2nnc(N3CCCC3=O)s2)CC1 | 3.67%
18 | O=C(c1ccccc1)N1CCN(C2CCN(Cc3ccccc3)CC2)CC1 | -3.09%
19 | OCCNCc1ccccc1OCc1ccc(F)cc1 | 1.64%
20 | Cc1ccc(/C=C/C2=CC(C)(C)NC(S)=N2)cc1 | -7.21%
21 | CC1CCc2c(C(=O)NCC3CCCO3)csc2C1 (stereo not shown) | -3.21%
22 | O=c1c2oc3ccccc3c2ncn1Cc1cccc(C(F)(F)F)c1 | -2.97%
23 | Clc1ccc(CNc2nc3ccccc3n2CCN2CCOCC2)cc1 | -1.11%
24 | Cn1cnnc1SCc1ccc(Cl)cc1Cl | -1.32%
25 | CN(C)CCNC(=O)CNC(=S)N(CCCN1CCOCC1)Cc1cccs1 | -3.94%

Row | SMILES | % Inhibition @ 10 uM
26 | O=C(NCc1ccc(F)cc1)c1ccccc1C(=O)NCc1ccc(F)cc1 | 3.67%
27 | COc1ccc(C(=O)Nc2ccccc2C(=O)O)cc1 | -3.92%
28 | O=C1CSC(c2ccc(Cl)c(Cl)c2)N1CC12CC3CC(CC(C3)C1)C2 (stereo not shown) | -0.415%
29 | CN(C)CCNC(=O)CSCc1cnn(-c2ccccc2)c1-n1cccc1 | 32.6%
30 | COc1ccc(C2(C(=O)Nc3cccc(C(F)(F)F)c3)CCOCC2)cc1OC | 2.43%
31 | CC(C)C[C@H](NC(=O)OCc1ccccc1)C(=O)N[C@H](C#N)CC(=O)OC(C)(C)C | 1.71%
32 | CCOC(=O)C1CCN(C/C=C/c2ccccc2)CC1 | -1.78%
33 | O=C(c1csc2c1CCCCC2)N1CCN(c2ncccn2)CC1 | -1.44%
34 | Cc1ccc(C(=O)N2C3=C(CCCC3)C(=O)NC23CCCCC3)cc1 | -3.34%
35 | CCC(=O)N1C(C(=O)NCc2ccccc2F)CSC12CCN(C)CC2 (stereo not shown) | 4.81%
36 | O=C(O)c1[nH]c2ccccc2c1S(=O)c1ccc(Cl)cc1 (stereo not shown) | 3.24%
37 | Cc1csc(NC(=O)c2sc3nc(C)c4c(c3c2N)CCCC4)n1 | 0.795%
38 | CCOc1ccc(CN2c3cccc4cccc(c34)S2(=O)=O)cc1OCC | -3.72%
39 | CS(=O)(=O)N1CCC(C(=O)Nc2ccc(Oc3ccccc3)cc2)CC1 | -0.622%
40 | CC(C)C[C@H](NC(=O)OCc1ccccc1)C(=O)N[C@H](C#N)COC(=O)Nc1ccccc1 | -1.41%
41 | COc1ccc(C2=NOC(Cn3c(Cc4ccc(Cl)cc4)nc4c3c(=O)n(C)c(=O)n4C)C2)cc1 (stereo not shown) | 1.91%
42 | COC(=O)c1ccc(C2Oc3ccc(C)cc3C3=C2C(c2ccccc2)n2ncnc2N3)cc1 (stereo not shown) | -5.19%
43 | O=C(/C=C/c1ccccc1O)c1ccccc1 | -6.2%
44 | COc1ccc(CNc2ccc3c(c2)OCO3)cc1C | 0.00588%
45 | O=C(Cn1cnc2c(nnn2Cc2ccc(F)cc2)c1=O)NC1CCCC1 | -2.16%
46 | COc1cccc(CNCc2ccc(F)cc2)c1OC | -4.16%
47 | O=C(NCc1ccc2c(c1)OCO2)C1CCCN(S(=O)(=O)c2ccc(Br)s2)C1 (stereo not shown) | -2.56%
48 | CC(C)C(=O)Nc1nnc(S(=O)(=O)N(C)Cc2ccc(Cl)cc2)s1 | -5.9%
49 | CC(C)N(C(=O)C(CC1CCCCC1)C(=O)NCC#N)C(C)C (stereo not shown) | -1.83%
50 | Cc1ccsc1-c1nc(CSCC(=O)NC(C)c2ccccc2)c(C)o1 (stereo not shown) | 5.56%

Row | SMILES | % Inhibition @ 10 uM
51 | Cc1ccc(/C=C(\C#N)C(N)=S)o1 | 79.5%
52 | COc1ccc(S(=O)(=O)N(CC(=O)NC2CCCCC2)c2cccc(Cl)c2)cc1 | -1.27%
53 | COc1ccc(C2=NN(CC(=O)NCCc3ccc(C)cc3)C(=O)CC2)cc1 | 3.24%
54 | O=C(CSc1nc2ccccc2[nH]1)NC1CCCC1 | -4.3%
55 | COc1ccccc1C1CC(=O)Nc2c1ccc1ccccc21 (stereo not shown) | 6.24%
56 | COc1cc(O)ccc1C1Nc2ccccc2-c2cc(C)nn21 (stereo not shown) | -3.71%
57 | CCOc1cccc(C(=O)N(Cc2cccs2)C2CCS(=O)(=O)C2)c1 (stereo not shown) | 2.1%
58 | CC(=O)c1cc(-c2ccccc2)[nH]c1NC(=O)c1ccccc1 | -0.736%
59 | COc1ccccc1NC(=O)c1cc(OC)c(OC)c(OC)c1 | -5.67%
60 | Cc1ccc(C(=O)N2CCCN(C(=O)c3ccc(C)cc3)CC2)cc1 | -4.63%
61 | CC(C)(C)c1cc(CCc2nc3ccccc3[nH]2)cc(C(C)(C)C)c1O | -9.55%
62 | COc1cc(NS(=O)(=O)c2ccc(N3C(=O)c4ccccc4C3=O)cc2)nc(OC)n1 | -1.96%
63 | CC(=O)c1c(/N=C/N(C)C)nc(C)nc1-c1ccccc1 | 2.01%
64 | Cc1ccc(S(=O)(=O)NC(=S)NCc2cccc(Oc3ccccc3)c2)cc1 | 9.01%
65 | CC(C)c1cc(C(C)C)c(S(=O)(=O)N2CCCCCC2)c(C(C)C)c1 | 1.48%
66 | Cc1ccc2cc(C)c(NCc3cccnc3)nc2c1 | -1.37%
67 | CCN(CC)CCCN(C)C(=O)c1noc2c1COc1ccccc1-2 | -0.631%
68 | CC1=NN(C(=O)Cc2ccc(C)cc2)C(O)(c2cccnc2)C1 (stereo not shown) | -1.2%
69 | COc1ccc(CCNC(=O)C(=O)Nc2nccs2)cc1OC | 2.09%
70 | CCn1c(COc2ccc3c(c2)OCO3)nnc1SCC(N)=O | -1.3%
71 | COc1ccccc1CN1COc2c(Cl)cc3c4c(c(=O)oc3c2C1)CCC4 | 0.895%
72 | CN(CCCNC(=O)Cn1cc2c(n1)CCCC2)C1CCCCC1 | 3.4%
73 | Cc1c(NC(=O)NCCC2=CCCCC2)sc2nc3n(c(=O)c12)CCC(C)CC3 (stereo not shown) | 3.29%
74 | Cc1ccc(C(=O)Nc2ccc(N3CCN(C)CC3)cc2)c(Cl)c1 | -2.6%
75 | O=C1C(/C(=N\Cc2cccnc2)NCc2cccnc2)=C(O)c2ccccc21 | -0.864%

Row | SMILES | % Inhibition @ 10 uM
76 | Cc1[nH]c2ccc(C(=O)NCCCN3CCN(C)CC3)cc2c1C | -4.33%
77 | CCOc1ccc(S(=O)(=O)Nc2ccncc2)c(C)c1C | 3.36%
78 | COc1ccc2[nH]c(C)c(CCNCc3c(C)nn(C)c3Cl)c2c1 | -4.35%
79 | O=C(NCc1ccccn1)C1CCN(c2ncnc3c2nc2n3CCCCC2)CC1 | 5.7%
80 | NC1=C(c2nc(O)c3ccccc3n2)C(=O)CN1c1ccc(Cl)cc1 | 0.751%
81 | Cc1cc(C)nc(SCC(=O)c2cccc3ccccc23)n1 | -7.23%
82 | CN(Cc1ccco1)S(=O)(=O)c1ccc2[nH]cc(C=O)c2c1 | 0.718%
83 | CSc1nc(C)cc(C(F)(F)F)c1C#N | 4.97%
84 | CCOC(=O)C1=C(C)N=c2s/c(=C\c3ccc(N(C)C)cc3)c(=O)n2C1c1ccc2c(c1)OCO2 (stereo not shown) | -5.28%
85 | CCC1CCCCN1CCCNC(=O)C1CCN(S(=O)(=O)N2CCCCC2)CC1 (stereo not shown) | -1.34%
86 | CCC(C)CNC(=O)C(C)Oc1ccc(Cl)cc1Cl (stereo not shown) | 4.05%
87 | COc1cc(OC)cc(C(=O)N2CCCC2)c1 | -1.05%
88 | CCN1CCN(C(=O)c2ccc(Cn3c(SCc4ccc(F)cc4)nc4ccncc43)cc2)CC1 | -0.23%
89 | CCOc1ccc(NC(=O)c2cc(OC)c(OC)c(OC)c2)cc1 | -3.34%
90 | CC(C)CS(=O)(=O)C1=NN2C(=N)/C(=C\c3ccc(O)c(Br)c3)C(=O)N=C2S1 | 1.9%
91 | COc1cccc2c1cc1c(=O)n(CC(=O)NCc3ccccc3Cl)nc(C)n12 | 1.68%
92 | Cc1ccc(S(=O)(=O)N2CC(=O)Nc3ccccc32)cc1C | -0.992%
93 | CCC(C)Cn1c(CCNC(=O)c2ccco2)nc2ccccc21 (stereo not shown) | -1.35%
94 | O=C(Cn1cnc2sc3c(c2c1=O)CCCC3)NCCCC(=O)N1CCC2(CC1)OCCO2 | -6.13%
95 | CC(C)c1ccc(CN2CCN(c3cccc(Cl)c3)CC2)cc1 | -2.81%
96 | COC(=O)c1ccc(NC(=O)[C@@H]2C3C=CC(C3)[C@@H]2C(=O)O)cc1 (stereo partly shown) | -4.43%
97 | CCOC(=O)NC(=O)/C(=C/Nc1ccc(Cl)c(Cl)c1Cl)C(C)=O | -0.996%
98 | CC(=O)c1cc2c(cc1NC(=O)c1ccc(C)cc1)OCO2 | -5.32%
99 | CC(C)(C)NC(=O)c1cnn2c1NC(c1ccc(F)cc1)CC2C(F)(F)F (stereo not shown) | -1.93%
100 | Cn1cc(Br)c(C(=O)Nc2ccc(Cl)cc2Cl)n1 | -0.687%
